Results from the supplement of paper PMC11417369.
This is one part of the list.

Tested on: PF3D7_0420300 AP2 domain 1 (GST-tagged)
Assay: gcPBM binding intensity (ln(normalized median fluorescence intensity)); higher = stronger DNA binding
Outline: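 Binding intensity is the highest Masliner-normalised natural-log median intensity over replicate spots in either probe orientation. To obtain it, GST-tagged P. falciparum DNA-binding domains made in E. coli were incubated for 1 h on an Agilent 4 × 180k array of primer-extended double-stranded 36-bp intergenic genomic probes plus negative controls. Detection used Alexa488 anti-GST antibody with scanning at 488 nm.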

Sequence | gcPBM binding intensity (ln)
TGTTGTAACAAAAGTACACACACATTTCTATAAATT [CACACA_site8894] | 9.51
ATTACATAACAATATACACACTATTGATTAAAGAGA [CACACA_site5602] | 9.56
TTTATTAGATAACGATAAACGAAAAAAAAAAAATAA [GTGCAC_negctrl_site81] | 9.18
ATAATATAAATAAAGCGTACTTAATTTTATATATAT [XGTACX_site4626] | 9.19
CATTATGTCATAAATGCACACATATATATATACATA [CACACA_site8454] | 9.34
TATTTAAAAGTATATACACACAACTGGAATGAAAAG [CACACA_site4126] | 9.75
TATGTATGCCCTAATGCATGTGAACAAAATAATATA [TGCATGCA_site407] | 9.15
ATTATAACACCTCCCCCCCTTTTTTTATGAAGACCA [CACACA_negctrl_site1043] | 10.4
TATTTTAATCGTAAGTGTACTCTTTTAAGTATATGT [XGTACX_site8591] | 9.2
AAAATTAAAAAAATAAATACATTATATAATTAAAAA [CACACA_negctrl_site1426] | 9.04
AACAGACATAGACACACACACATATATTTATTTATA [CACACA_site7571] | 9.83
TTTTTTAAATTTTGAATTATAACTACATTAAAGAAA [GTGCAC_negctrl_site279] | 8.63
ATGCAAATAATATAAAGTACACAACATCGCCCAAAG [XGTACX_site1825] | 9.66
TCACATACATTACTTACACACCATATTAATATATAC [CACACA_site8047] | 9.68
AATAAAAAATAAAAAATAAACAGTATACATATATAT [GTGCAC_negctrl_site31] | 9.59
TCATATTAATTTGATAGTACATATACTTTGAAGTCC [XGTACX_site3767] | 9.06
TGTATATAAACAAGGGGTACAATAATATAAATAAAT [XGTACX_site8675] | 9.6
TTTTTTTTTTTTTTTACACACTATAGGGAAAAAAAA [CACACA_site1916] | 8.81
AAAAATATAATATATCTAAAATTTTTCATTAAATAT [XGTACX_negctrl_site274] | 8.98
ACATATATATATTTATATATATATATATATATGTGA [CACACA_negctrl_site613] | 8.99
ATAAATAAAAATACATGAACAGGTCAGGTTATTTTT [CACACA_negctrl_site1007] | 9.3
TTATATATAGAATAAACATGCATTTGTATATGAATA [TGCATGCA_site604] | 9.21

Sequence | gcPBM binding intensity (ln)
TATTTTGCTCATCCATGTACACATAGATATATTTTA [XGTACX_site8244] | 9.3
TTCTTTTCAGAAGGAAAGAATTATAACATATCATAA [XGTACX_negctrl_site548] | 8.83
ATATTATGTGAAGAACGTACAAATTTTTACACTATA [XGTACX_site1485] | 9.3
TAAAAGAAATAAGGTGCACACATATACATATATATA [CACACA_site8037] | 9.55
TTTCTAAATGTTTATATATATATATATATATAAATA [GTGCAC_negctrl_site397] | 9.01
CTATAAATAACAGAAAGTACATATACATGGATATAT [XGTACX_site3317] | 9.52
AATATATCAAAAATTGGATAGTTTCTTATAAAAAAT [CACACA_negctrl_site39] | 9.11
TATTTTATAATTTACCGTACATTAATTGTATTATTA [XGTACX_site5722] | 9.33
ATATATTTTATATGTGTGCACTATATATATATATAT | 9.38
TCTTATTTTATAAATATAAATATATATATATATATA [GTGCAC_negctrl_site479] | 8.89
ATATATTTTAAAGAAAGTACCCACCGTTTGAAGTCA [XGTACX_site2273] | 9.42
TGTTATATATATTGACTTAATAAATAAATAAATATA [GTGCAC_negctrl_site590] | 8.92
ATTAATATATAACGTGCACACACACCGTTACGTATG [CACACA_site8543] | 9.87
TTACAAAACACTTATACACACATATAAATATAAATA [CACACA_site7307] | 9.61
CTCCTCATATAATTTTGTACATAAAAAATTACCATT [XGTACX_site3879] | 9.2
AGTATAAAAATAAGCACACACACAAATATATATTTA [CACACA_site923] | 10.2
TTTCTTCTGCATTATGCACACTATAATTCGTTAAAA [CACACA_site5568] | 9.27
TTTTCTTTTACAAAGGGTACATAATTTAAATTCATA [XGTACX_site3876] | 8.89
ATAATATAAATATTAACACACATCCTTTTATGTATA [CACACA_site6685] | 9.41
AAATAAGCATATACAAACATGCATACATATAAATAA [CACACA_negctrl_site246] | 9.38
AAAAAAAAAAAATCATGTACTTATTTTTCATTGTTG [XGTACX_site1542] | 9.08
CTTATATTAAAAACTTGTACACATGTTAAGAATTTT [XGTACX_site5857] | 9.07
